According to paper PMC4336329 (PLoS ONE, 2015):
Out of some 310,000 compounds screened, about 14,000 (4.5%) showed an effect of 50% or more. Effects have a minus sign here. The list shows a part of the results.

Biological target: human ether-à-go-go-related gene (hERG) potassium channel (human, UniProt Q12809)
Assay: primary screen, population patch clamp on CHO cells stably expressing hERG
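Note: peak tail current of the secondary pulse compared with the same well before compound.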

Sequence of human ether-à-go-go-related gene (hERG) potassium channel (Q12809 whole entry, looked up): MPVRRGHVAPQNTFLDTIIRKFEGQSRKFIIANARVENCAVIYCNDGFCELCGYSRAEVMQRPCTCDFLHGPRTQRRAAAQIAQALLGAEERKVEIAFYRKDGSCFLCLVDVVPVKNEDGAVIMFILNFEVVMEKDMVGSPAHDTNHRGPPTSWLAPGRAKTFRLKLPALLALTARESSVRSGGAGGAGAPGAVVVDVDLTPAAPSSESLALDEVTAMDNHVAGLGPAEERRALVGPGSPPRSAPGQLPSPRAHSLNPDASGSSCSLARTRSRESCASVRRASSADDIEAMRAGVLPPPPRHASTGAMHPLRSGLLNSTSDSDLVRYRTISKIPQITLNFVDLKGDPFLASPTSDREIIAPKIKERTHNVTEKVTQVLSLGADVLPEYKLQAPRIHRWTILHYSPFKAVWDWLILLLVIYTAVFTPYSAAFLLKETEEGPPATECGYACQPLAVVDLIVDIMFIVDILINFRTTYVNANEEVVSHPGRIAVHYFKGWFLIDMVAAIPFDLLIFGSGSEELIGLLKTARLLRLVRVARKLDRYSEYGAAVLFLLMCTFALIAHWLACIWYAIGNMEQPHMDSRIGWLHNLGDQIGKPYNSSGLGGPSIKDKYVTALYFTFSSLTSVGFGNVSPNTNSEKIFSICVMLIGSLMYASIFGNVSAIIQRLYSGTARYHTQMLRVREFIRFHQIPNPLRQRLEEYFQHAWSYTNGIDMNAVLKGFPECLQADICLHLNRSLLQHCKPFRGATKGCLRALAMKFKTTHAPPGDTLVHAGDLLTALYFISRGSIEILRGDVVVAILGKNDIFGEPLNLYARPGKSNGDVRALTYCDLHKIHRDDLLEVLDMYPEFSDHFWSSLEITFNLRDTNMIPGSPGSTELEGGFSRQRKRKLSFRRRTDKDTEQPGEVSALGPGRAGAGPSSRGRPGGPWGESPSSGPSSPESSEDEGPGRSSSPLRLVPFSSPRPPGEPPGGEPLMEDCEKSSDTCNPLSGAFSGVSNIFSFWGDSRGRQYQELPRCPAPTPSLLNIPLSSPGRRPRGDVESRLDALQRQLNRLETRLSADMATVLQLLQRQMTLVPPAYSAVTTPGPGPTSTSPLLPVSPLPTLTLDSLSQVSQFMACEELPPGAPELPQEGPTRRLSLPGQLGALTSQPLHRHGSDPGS

Structure (SMILES)	hERG current change (%, negative = inhibition) at 10uM [%]
CC(C)Oc1cccc(C(=O)C2CCCN(Cc3cccn3-c3cccnc3)C2)c1 (stereo not shown)	-27.7
Cn1c(C(=O)OCC(=O)NCc2ccc(F)cc2)cc2occc21	-11.1
CCn1cc(C(=O)NCCc2ccc(OC)c(OC)c2)c(=O)c2cc(S(=O)(=O)N3CCOCC3)ccc21	-5.39
CC(C)(C)c1ccc2c(c1)OC(C(=O)N/N=C\c1ccncc1)CO2 (stereo not shown)	11.2
Cc1nn(Cc2ccccc2)c(C)c1/C=N/NC(=O)c1ccccc1O	-13.2
CC(C)CCCN1CCN=C1N(C)C	8.91
CCCOc1ccc(S(=O)(=O)NCc2ccc(OC)cc2)cc1	-23.5
COc1cc(SC)ccc1C(=O)NCCCn1ccnc1	-18.4
COc1ccc(C(=O)NCC2CCCCC2)cc1S(=O)(=O)N1CCCC1	-9.01
Cc1ccccc1NC(=O)c1c2c(nc3ccccc13)CCC2	-27.2
Cn1cnc2c1c(=O)n(Cc1ccc(Cl)cc1Cl)c(=O)n2C	-5.11
CC(C)NC(=S)N(CCc1ccncc1)C(C)C	17.3
O=S(=O)(c1ccccc1)N(Cc1ccccc1)c1ccccn1	10.8
CN(C)N1C(N)=C(C#N)C(c2cccs2)C2=C1CCCC2=O (stereo not shown)	6.91
CCN1CCN(c2ccc([N+](=O)[O-])c(Sc3nc4ccccc4[nH]3)c2)CC1	-60.4
O=C1CC(c2ccc(F)c(Br)c2)C2=C(CCCC2=O)N1 (stereo not shown)	-4.62
CCc1ccccc1NC(=S)N1CCC(NC(=O)c2ccc(OC)cc2)CC1	-13.9
Cc1ccc(CN2CCN(C(=O)CC(C)C)CC2)cc1	6.46
COc1cccc(-c2nnc(-c3ccccc3[N+](=O)[O-])o2)c1	7.36
Cc1ccc(C2C(C(=O)c3cc4ccccc4o3)=C(O)C(=O)N2c2cc(C)on2)cc1 (stereo not shown)	19.3
CCOCCOC(=O)c1[nH]c2c(c1C)C(=O)CC(c1ccc(OC)c(OC)c1)C2 (stereo not shown)	3.38
CC(C)CNC(=O)C(=O)NNC(=O)c1ccco1	13.2
COc1cc2c(cc1OC)C(C)N(C(=S)Nc1ccccc1)CC2 (stereo not shown)	-7.48

Structure (SMILES)	hERG current change (%, negative = inhibition) at 10uM [%]
O=C(O)CC(NC(=O)c1ccncc1)c1ccccc1 (stereo not shown)	21.5
CCn1c(C)c(C)c2cc(C(=O)NCCCN3CCCCCC3)ccc21	-35.5
COc1ccc(-c2cn(-c3cccc(C)c3)c(=O)[nH]2)cc1OC	-29.8
CC(=O)C(c1ccccc1)C(c1ccccc1)C(C)[N+](=O)[O-] (stereo not shown)	14.3
Cc1nc(SC(C)C(=O)NCC2CCCO2)c2cc(-c3ccccc3)sc2n1 (stereo not shown)	-27
O=C(c1ccccc1Sc1cccc2ccccc12)N1CCOCC1	-22
Cc1ccc(C(=O)Nc2c(C)cc(C)c3cccnc23)cc1	24
O=C(NC1CCCC1)C(c1ccc(O)cc1)N(CC1CCCO1)C(=O)C1COc2ccccc2O1 (stereo not shown)	-14.5
COCCCN(Cc1ccco1)C(=O)CSc1nc2ncccc2[nH]1	7.62
Cc1ccc(Nc2nc(N)nc(CN3CCC(C)CC3)n2)c(C)c1	-57.8
CCC(=O)Nc1nc(C)c(-c2csc(Nc3ccccn3)n2)s1	9.84
O=C(COc1cccc(C(F)(F)F)c1)NNC(=O)Cn1c(=O)cnc2ccccc21	-5.83
O=Cc1c(-[n+]2ccccc2)nc([O-])n1-c1ccccc1	2.93
CCC(=O)NC(c1cc(Cl)c2ccccc2c1O)C1CC1 (stereo not shown)	14.5
CCOC(=O)C1CCN(C(=O)c2ccc3c(c2)OCO3)CC1	-5.29
COc1cccc(NC(=O)c2ccc3c(SCC(=O)O)c4c(nc3c2)CCCC4)c1	7.68
CC1CCCN(CCC(=O)Nc2ccccc2)C1.Cl (stereo not shown)	12.2
COc1ccc(-c2csc(-n3ncc(-c4ccccn4)c3N)n2)cc1	20.2
CCCCC(CC)C(=O)Nc1ccc(S(=O)(=O)N2CCCC2)cc1 (stereo not shown)	-6.33
O=C(CC(c1ccccc1)(c1ccccc1)c1ccccc1)N[C@@H](Cc1ccc(O)cc1)C(=O)O	-12.5
Cc1nnc(N/N=C/c2ccccc2C(F)(F)F)n1N.Cl	11.2
FC(F)(F)c1cccc(NC(=S)N2CCN(c3cccc(C(F)(F)F)c3)CC2)c1	16.6
COc1ccc(C2/C(=C(/O)c3ccccc3)C(=O)C(=O)N2CO)cc1 (stereo not shown)	1.55

Structure (SMILES)	hERG current change (%, negative = inhibition) at 10uM [%]
O=C(CSC(=S)N1CCOCC1)Nc1nccs1	-1.54
CCOC(=O)C1CCN(C(=O)c2cccc(NC3=NC4CS(=O)(=O)CC4S3)c2)CC1 (stereo not shown)	7.41
CN(C)CCCn1c(SCc2ccc(Cl)cc2)nnc1-c1ccncc1.O=C(O)C(=O)O	-15.5
O=C(CCC1COc2ccccc2O1)NCc1ccco1 (stereo not shown)	0.393
O=C(CN1C(=O)S/C(=C\c2ccc(C(=O)O)cc2)C1=O)Nc1ccccc1	19
Cc1cc(=O)[nH]c(SCC(=O)Nc2c(C)n(C)n(-c3ccccc3)c2=O)c1C#N	19.3
CC1(C)Cc2c(sc(NC(=O)c3ccc4ncsc4c3)c2C(N)=O)C(C)(C)N1	-30.5
CC(C)n1nnnc1-c1cc(Cl)cc(Cl)c1	-11.1
CCCCN(C(=O)CNC(=O)c1cccs1)C(C(=O)NC1CCCC1)c1ccncc1 (stereo not shown)	4.35
Nc1nc(Cl)c(C=O)c(N2CCCCC2)n1	1.3
N#Cc1cc(C(=O)c2cc(Br)ccc2O)cn(C2CC2)c1=O	-27.5
COc1cc(NC(=O)c2csc(N)n2)cc(C(=O)Nc2cccc(C(F)(F)F)c2)c1	-4.7
Cc1ccc(-c2nnc(N3CCC(C)CC3)c3ccccc23)cc1	3.1
Cl.NC(CCC(=O)O)C12CC3CC(CC(C3)C1)C2 (stereo not shown)	14.2
Cc1ccc(OCC(O)CN2CCN(c3ccccn3)CC2)c(C)c1.Cl (stereo not shown)	-60.5
O=C(CC(C(=O)O)c1cccc(Cl)c1)c1ccccc1 (stereo not shown)	14.2
CO/N=C(\Cn1ncc(N2CCCC2)c(Br)c1=O)c1ccc(Cl)cc1	-57.5
CCC(C)[C@H](NC(=O)[C@@H]1CSC2c3ccccc3C(=O)N21)C(=O)NCC1CCCO1 (stereo partly shown)	21.5
CCOC(=O)C1CCCN(C(=S)Nc2ccc(C)cc2C)C1 (stereo not shown)	7.62
Cc1ccc(NC(=S)N2CCN(S(=O)(=O)c3ccccc3)CC2)cc1	6.89
Cc1cc(S(=O)(=O)N2CCCC2)ccc1OCC(=O)N1CCOCC1	3.1
CCCCCCC#Cc1ccc2c(c1)COc1c3ccccc3nn1-2	16.5
CCN1CCCC1CNC1=NCCCCC1 (stereo not shown)	7.64

Structure (SMILES)	hERG current change (%, negative = inhibition) at 10uM [%]
COc1ccc(NC(=O)CN(C)CC(=O)Nc2ccccc2SC)cc1	-1.63
O=C(CCN1C(=O)c2ccncc2C1=O)NCc1ccc(Cl)cc1	-51.9
Cn1ccsc1=NC(=O)c1ccc(CS(C)(=O)=O)cc1	22
CCOC(=O)/C(C#N)=C\c1ccc(CC)s1	-3.59
N#C/C(=N\Nc1ccccc1F)C(=N)N1CCCCC1	-12.2
COc1ccc(C(=O)C[n+]2cccc3cc(OC)ccc32)cc1.[Br-]	6.04
Nc1cccc(C2=Nc3cccc4cccc(c34)N2)c1	15.6
COc1cccc(OC(=O)N2CCOCC2)c1	8.3
COC1(OC)N=C(N)C2(C#N)C(c3ccc(C)cc3)C12C#N (stereo not shown)	10.1
Cc1cc(C)cc(N2C(=O)CSC2c2ccccn2)c1 (stereo not shown)	7.31
O=C(CCCCCn1c(SCC(=O)c2ccccc2)nc2ccccc2c1=O)NCc1ccco1	10.8
O=C(Nc1ccc(Cl)cc1)OCc1cncs1	-12.2
CC(CCc1ccccc1)NC(=O)COc1cc(F)ccc1[N+](=O)[O-] (stereo not shown)	-18.7
CCN(C1CCCCC1)S(=O)(=O)c1ccc(-n2cnnn2)c(C)c1	-11.1
O=C(CSCc1cccc(Cl)c1)N/N=C/c1ccc(OCC(=O)N2CCCCC2)cc1	-11.7
O=C(Nc1ccc(F)cc1F)c1cc(=O)n(-c2ccccc2)c(=O)[nH]1	6.37
CCN(CC)S(=O)(=O)c1cccc(C(=O)N/N=C/c2c(C)nn(-c3ccccc3)c2Cl)c1	6.89
COCCN(CCOc1cc(C)cc(C)c1)Cc1ccc(Cl)cc1	18.1
COc1ccc(NC(=O)N(Cc2ccc3c(c2)OCO3)C2CC(=O)N(c3ccc(OC)cc3)C2=O)cc1 (stereo not shown)	-4.75
COc1ccc(C(=O)N/N=C/c2sc(N3CCOCC3)nc2-c2ccccc2)cc1OC	9.37
O=C(O)CCC(=O)Nc1ccc(OCC2CCCO2)cc1 (stereo not shown)	27.8
CCN(CC)S(=O)(=O)c1cccc(NC(=O)COC(=O)CCC(=O)c2cccs2)c1	3.85
